From the supplement of paper PMC3334620
The full ranking holds about 33,000 sequences; the median of “E-score (-0.5 to 0.5)” is about -0.032, and the highest 2% start at about 0.36. This is one part of the list.

biological target: T1, Sko1 (UniProt Q02100); test: PBM E-score (8-mer binding enrichment) (E-score (-0.5 to 0.5)); higher = stronger / more preferred TF binding; most listed sequences are background and not binding sites; settings: protein concentration: 200 nM; construct: GST-full length
T1 sequence: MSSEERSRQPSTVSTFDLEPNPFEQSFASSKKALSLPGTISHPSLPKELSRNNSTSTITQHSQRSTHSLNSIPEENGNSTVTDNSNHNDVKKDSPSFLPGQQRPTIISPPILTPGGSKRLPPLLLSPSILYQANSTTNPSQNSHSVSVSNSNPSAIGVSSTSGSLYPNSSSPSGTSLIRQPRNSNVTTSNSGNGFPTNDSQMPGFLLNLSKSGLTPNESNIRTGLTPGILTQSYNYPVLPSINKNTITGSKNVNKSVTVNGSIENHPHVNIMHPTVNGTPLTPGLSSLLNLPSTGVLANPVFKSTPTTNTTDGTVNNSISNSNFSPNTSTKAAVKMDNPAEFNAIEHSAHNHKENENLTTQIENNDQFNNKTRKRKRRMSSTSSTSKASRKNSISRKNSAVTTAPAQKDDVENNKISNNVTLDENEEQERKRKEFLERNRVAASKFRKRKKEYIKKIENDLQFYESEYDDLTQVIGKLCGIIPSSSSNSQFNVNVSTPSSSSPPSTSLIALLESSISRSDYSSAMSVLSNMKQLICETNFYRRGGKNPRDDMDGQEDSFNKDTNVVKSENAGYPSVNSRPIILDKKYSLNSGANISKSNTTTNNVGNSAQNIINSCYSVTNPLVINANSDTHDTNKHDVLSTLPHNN
How it was run: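 Each ungapped eight-base word and its reverse complement, pooled, received an E-score from the Universal PBM Analysis Suite. Underlying scans, normalised with masliner, recorded fluorescent anti-GST bound to GST-tagged yeast transcription factors. These were applied at about 100-200 nM to universal all-10-mer Agilent arrays double-stranded by primer extension.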

| Sequence | PBM E-score |
| --- | --- |
| TAGATCAA | 0.148 |
| CACATTAA | 0.0252 |
| AAAGTGAT | 0.171 |
| GACCCACC | -0.191 |
| AACGCTCC | -0.09 |
| GATACCCA | 0.143 |
| ACTAAAGC | 0.0851 |
| AAAGCGTA | -0.0108 |
| GCACGATA | 0.11 |
| AATTTCGT | 0.329 |
| AGATAAAA | 0.18 |
| GACACATA | 0.19 |
| AGGAACTC | -0.0596 |
| AGTAACGA | -0.0118 |
| AAGGTAGT | -0.172 |
| AACGCAGC | 0.0852 |
| CGCTTGAG | -0.196 |
| AAGCGACA | -0.083 |
| AGGTCCAT | 0.0213 |
| CACTCACA | -0.0872 |
| TCGCTAAA | 0.0984 |
| ACTGTTCA | -0.124 |

| Sequence | PBM E-score |
| --- | --- |
| CGATATCA | 0.107 |
| AATCGCCG | -0.15 |
| GCCGGTGA | -0.0673 |
| CACCGTCC | -0.334 |
| AGGCCGCA | -0.135 |
| ATTATATA | 0.234 |
| CCGACACA | -0.193 |
| ACCCCTCT | -0.252 |
| AGCTAGAG | -0.0748 |
| CGGCTTTC | -0.144 |
| ACTCCTTC | -0.213 |
| ACCGTGTG | -0.23 |
| GAGGTCTA | -0.0941 |
| CGCAATCC | 0.188 |
| AATTACTC | 0.215 |
| GTTAGGCA | -0.0724 |
| ACTGTCAG | -0.0657 |
| CGTTGGCA | -0.0554 |
| AACATCGT | 0.0175 |
| CTAGAGAC | -0.207 |
| GACCTCTC | -0.13 |
| CTCGGAAG | -0.221 |

| Sequence | PBM E-score |
| --- | --- |
| AACTACCG | 0.0336 |
| GATAAACC | 0.0912 |
| GGGGTTGA | -0.117 |
| ACATGTGC | 0.0169 |
| CGGGTCGA | -0.254 |
| AAAGGGTG | -0.0683 |
| CCTACCGA | -0.168 |
| ACGGATTG | -0.0304 |
| GATGCTGC | -0.237 |
| GCATTGCA | -0.0747 |
| AAGGGCAC | -0.0629 |
| CGCGGCTA | 0.0344 |
| CGGAGTCC | -0.128 |
| ACGCAACC | 0.379 |
| ACTCATAA | 0.132 |
| CTCTAAAG | -0.206 |
| AGCTCATG | 0.0732 |
| CTGACGCC | 0.159 |
| AAAGGTAG | -0.11 |
| CTGCCCCC | -0.332 |
| ACCACCTA | -0.114 |
| ATCCCTAG | -0.156 |

| Sequence | PBM E-score |
| --- | --- |
| CACTGAAC | 0.00689 |
| ACGCGGTC | 0.0508 |
| CGCCCCAC | -0.0143 |
| AGGACTCC | -0.228 |
| AGCTTGCC | 0.141 |
| AACGAGCC | -0.11 |
| GCGATGGA | -0.185 |
| AGTATATA | 0.254 |
| CCACTAGA | -0.174 |
| ACGTGGAG | 0.311 |
| AGACTGTC | -0.165 |
| CCGGCTAC | -0.0881 |
| CCCACGAG | -0.254 |
| CTTGCCTC | -0.154 |
| ATGCCCTA | -0.375 |
| CCTCTTCG | -0.147 |
| CCAAATAG | -0.075 |
| CTGAAAAC | 0.0758 |
| CATAAATA | 0.112 |
| CGGTGTAC | -0.0888 |
